# In PubChem BioAssay AID493208 (National Center for Advancing Translational Sciences (NCATS), 2011):
# In all, about 44,000 compounds went through this assay and about 340 (0.77%) were called active. Inconclusive results (about 5%) are left out. The call rests on the fitted dose curve; in most records, active means well fitted inhibition curve with a large enough effect; inconclusive means small, poorly fitted or top-dose-only effect; inactive means flat fitted curve, though single readings scatter. This is one part of the list.
# Test: Acumen qHTS Assay for Inhibitors of the mTORC1 Signaling Pathway in MEF (Tsc2-/-, p53-/-) Cells: Sytravon; further: nearly all actives have a fitted effect of over 50% in size;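 on activity change, negative = inhibition: plate controls were DMSO for no effect and rapamycin for full effect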
# Conditions: phospho-rpS6 immunofluorescence/PI, 24 h; series mostly up to 38.3 µM; activity change, negative = inhibition: at the top concentration
# Procedure, shortened: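 Compounds act on Tsc2-/-, p53-/- fibroblasts carrying an empty vector for 24 h before fixation and dual staining for phospho-S6 and DNA (propidium iodide). Values are percentages of cells above a rapamycin-defined pS6/PI threshold.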
# Potency means the concentration at half of the fitted maximal effect.
Structure (SMILES),"activity change, negative = inhibition",Potency
Cn1cc(S(=O)(=O)N2CCCC2)cc1C(=O)Nc1ccc(C(F)(F)F)cc1,inactive: -12.8%,
O=C(Nc1ccc(NC(=O)c2ccc(Br)cc2)c(Cl)c1)c1ccc(Br)cc1,inactive: 2.29%,
COc1ccccc1-c1nnc(C2CCN(S(=O)(=O)c3ccccc3)CC2)o1,inactive: -13.3%,
COc1ccc(C(=O)Nc2nc3ccc(S(=O)(=O)N4CCCC4)cc3s2)cc1,inactive: 2.82%,
COc1cccc2cc(-c3nnc(-c4ccc(Cl)cc4)o3)c(=O)oc12,inactive: 1.58%,
CCc1nn(CC(=O)N2CCN(c3cccc(C(F)(F)F)c3)CC2)c(=O)c2cc3occc3n12,inactive: -1.26%,
COc1cccc(N2CCN(C(=O)Cn3cnc4onc(-c5ccc(F)cc5)c4c3=O)CC2)c1,inactive: -8.52%,
CCCCCn1c(=O)[nH]c2cc(C(=O)Nc3ccc(OC)c(OC)c3)ccc2c1=O,inactive: 0.403%,
COc1cccc(-c2nc(CS(=O)(=O)CC(=O)NCCCN3CCN(C)CC3)c(C)o2)c1,inactive: 3.35%,
COc1ccc(C)cc1NC(=O)C1CCCN(S(=O)(=O)c2ccc3c(c2)oc(=O)n3C)C1 (centres undefined),inactive: 7.27%,
Cc1cccc(Cn2c(SCc3ccc(C(=O)NCCc4ccccc4)cc3)nc3cccnc32)c1,inactive: -5.22%,
CC(=O)Nc1ccc(S(=O)(=O)N2CCN(c3ccccc3)CC2)cc1,inactive: 0.681%,
CC(=O)Nc1cccc(NC(=O)C2(c3cccs3)CCOCC2)c1,inactive: 2.05%,
Cc1ccc(SCc2nc(-c3ccc(C(=O)NCc4ccccc4Cl)cc3)oc2C)cc1,inactive: 0.0523%,
CCOC(=O)CC(=O)CSc1nc2ccccc2c(=O)n1CCc1ccccc1,inactive: 1.91%,
COc1cccc(-c2nnc3n(CCc4ccccc4)c(=O)c4ccccc4n23)c1O,inactive: -4.06%,
COc1cccc(CNC(=O)CN(c2ccc(C(C)C)cc2)S(=O)(=O)c2c(C)n[nH]c2C)c1,inactive: 2.51%,
Cn1c(=O)c(=O)n(C)c2cc(N3CCCC3)c(NC(=O)c3ccc(C(C)(C)C)cc3)cc21,inactive: 6.4%,
Cc1cccc(NC(=O)CSc2cn(CC(=O)N3CCOCC3)c3ccccc23)c1,inactive: 3.24%,
COc1ccc(S(=O)(=O)N(CCc2ccccc2)CC(=O)Nc2cc(C)ccc2C)cc1,inactive: -4.45%,
CCc1ccc(NC(=O)C2CCN(S(=O)(=O)c3c(C)noc3/C=C/c3cccs3)CC2)cc1,inactive: -1.3%,
CCn1cc(C(=O)NCCOC)c(=O)c2cc(S(=O)(=O)N3CCOCC3)ccc21,inactive: -0.156%,
CCSc1nnc2c(n1)OC(c1ccc(OCC(=O)O)cc1)Nc1ccccc1-2 (centres undefined),inactive: -3.24%,
COc1cc(OC)cc(C(=O)Nc2ccc3oc(-c4ccc(Cl)cc4)nc3c2)c1,inactive: -6.68%,

Structure (SMILES),"activity change, negative = inhibition",Potency
CCOC(=O)C1=C(c2ccccc2)Nc2ncnn2C1c1ccc(Cl)cc1 (centres undefined),inactive: 0.904%,
O=C(CCC1N=C2c3ccccc3N=C(SCC(=O)Nc3ccccc3F)N2C1=O)NCc1cccs1 (centres undefined),inactive: -23.6%,
CCOc1ccccc1CNC(=O)CN1C(=O)CCn2nc(-c3cn(C)c4ccccc34)cc21,inactive: -14.1%,
O=C(c1ccc2c(c1)N(Cc1cccc(Cl)c1)C(=O)c1ccccc1S2(=O)=O)N1CCC(Cc2ccccc2)CC1,inactive: 0%,
COc1ccc(CNC(=O)c2ccc3c(c2)NC(=O)C(CS(=O)(=O)Cc2ccccc2Cl)N3)cc1 (centres undefined),inactive: 4.6%,
CCc1cccc(CC)c1NC(=O)c1c(C)oc2ccc(O)c(CN3CCOCC3)c12,inactive: 2.06%,
Cc1nc2ccc(S(=O)(=O)N(CC(=O)Nc3ccc(Cl)cc3)Cc3ccccc3)cc2s1,inactive: -4.84%,
CCOC(=O)c1cccc(NS(=O)(=O)c2c(C)nc3sc(C)cn3c2=O)c1,inactive: -6.25%,
CSc1cccc(N2C(=O)N(CC(=O)NCc3ccccc3Cl)c3ccccc3S2(=O)=O)c1,inactive: -15.4%,
CCOc1ccccc1N(C)C(=O)Cn1cnc2onc(-c3ccc(F)cc3)c2c1=O,inactive: -4.28%,
CC(C)CCOc1ccc(Oc2nc(N(C)C)nc(N(C)C)n2)nn1,inactive: 3.8%,
COc1ccccc1-n1ncc2c(=O)[nH]c(SCC(=O)Nc3cccc(F)c3)nc21,inactive: -6.97%,
COc1ccc2c(CNCc3cccs3)c(C(=O)O)n(Cc3ccc(F)cc3Cl)c2c1,inactive: -0.715%,
CCOc1ccc(C(=O)c2oc3ccccc3c2NC(=O)c2cc(-c3ccccc3)on2)cc1,inactive: 0.498%,
Cc1ccc(NC(=O)C(Cc2ccccc2)n2cccc2)c(C)c1 (centres undefined),inactive: 0.454%,
Cc1cc(=O)n2c(C(=O)Nc3ccc(F)c(Cl)c3)c(C(=O)Nc3cccc(C)c3C)sc2n1,inactive: 2.52%,
Cc1cc(Nc2ccc(C(C)C)cc2)nc(-n2nc(C)cc2C)n1,inactive: -24.4%,
COc1ccc(NC(=O)CN(C)S(=O)(=O)c2ccc3c(c2)CCCN3C(C)=O)cc1Cl,inactive: -9.56%,
CCCCCn1c(=N)c(S(=O)(=O)c2ccccc2)cc2c(=O)n3cccc(C)c3nc21,inactive: -12.6%,
Cc1cccc2sc(N(Cc3cccnc3)C(=O)Cc3ccccc3)nc12,inactive: -3.03%,
Cc1nnc(SCc2ccccc2Cl)c2cc3occc3n12,inactive: 3.88%,
CC(C)Oc1cccc(C(=O)Nc2ccc(-c3nc4cc(Cl)cc(Cl)c4o3)cc2)c1,inactive: -0.271%,
COc1cc(-c2noc(-c3ccc(NC4CCCCC4)c([N+](=O)[O-])c3)n2)cc(OC)c1OC,inactive: 0.551%,
CCN(CC)C(=O)Cn1c(=O)n(CCCCCC(=O)NCc2ccccc2)c(=O)c2sccc21,inactive: 0.499%,

Structure (SMILES),"activity change, negative = inhibition",Potency
COc1ccccc1C(=O)Nc1ccccc1SCc1cc(=O)c2ccccc2[nH]1,inactive: -16.3%,
O=C(c1ccc2c(c1)N(Cc1ccccc1F)C(=O)c1ccccc1S2=O)N1CCCCC1 (centres undefined),inactive: 3.34%,
O=C(NC1CC(=O)N(c2ccc(F)cc2)C1)C1CCCCC1 (centres undefined),inactive: -7.57%,
CCOc1cc(/C=C(\C#N)C(=O)Nc2ccccc2C)ccc1OCc1cc(=O)n2nc(CC)sc2n1,inactive: -15%,
Cc1ccc(NC(=O)C2CCN(c3nnc(-n4cccc4)s3)CC2)cc1Cl,inactive: -0.0984%,
CCOc1ccc(-c2csc(-c3nc(-c4ccc(Br)s4)cs3)n2)cc1,inactive: 7.59%,
COc1cccc(C(c2c(O)cc(C)n(Cc3ccco3)c2=O)N2CCC(C)CC2)c1 (centres undefined),inactive: 4.73%,
COc1ccc(OC)c2sc(N(Cc3cccnc3)C(=O)c3ccc(C(C)=O)cc3)nc12,inactive: -5.68%,
COc1ccc(-c2nc(C)c(CCNC(=O)c3cc(OC)c(OC)c(OC)c3)s2)cc1OC,inactive: 1.93%,
O=C(NCc1ccccc1)c1cc2ccccc2o1,inactive: 5.08%,
CC(C)CCNC(=O)c1cccc(-n2cnc3cccnc32)c1,inactive: -5.13%,
Cc1ccc(C(=O)COC(=O)c2cccc(NC(=O)c3ccc(Br)cc3)c2)cc1,inactive: -19.7%,
Cc1ccc(C)c(N2CCN(S(=O)(=O)c3ccc4c(c3)CC(=O)N4C)CC2)c1,inactive: 2.01%,
Cc1ccc2c(c1)-c1c(c(C(=O)NCCc3ccccc3)nn1C)CS2,inactive: -10.3%,
Cc1cccc(CS(=O)(=O)Cc2ccc(C(=O)NC(C)c3ccccc3)o2)c1 (centres undefined),inactive: 4.58%,
COc1cccc(CNC(=O)Cn2c(SCC(=O)Nc3ccc(F)cc3)nc3ccccc32)c1,inactive: -1.13%,
CCCCN(CC)CCCNC(=O)C1CCN(c2nc3ccc(CC)cc3s2)CC1,,active: 7.36 µM
COc1ccc(CCC(=O)NCc2nc3cccnc3n2Cc2ccc(C)cc2)cc1,inactive: 2.77%,
CCOCCCNC(=O)c1[nH]c2cc(OC)ccc2c1Sc1ccccc1,inactive: 0.573%,
Cc1cccc(N(CC(=O)Nc2cccc(Cl)c2C)S(C)(=O)=O)c1C,inactive: -14.3%,
Cc1ccc(S(=O)(=O)NCC(c2ccco2)N2CCN(c3ccccc3F)CC2)cc1 (centres undefined),inactive: -3.64%,
COC(=O)c1c(NC(=O)c2nc(SCc3ccc(C)cc3)ncc2Cl)sc2c1CCCC2,inactive: 0.0534%,
CCCCCNS(=O)(=O)c1ccc(N2CCCCS2(=O)=O)cc1,inactive: -32.7%,
COc1ccc(NC(=O)Cn2c(=O)n(CCC(=O)NCCc3ccc(OC)c(OC)c3)c(=O)c3ccccc32)cc1Cl,inactive: 1.41%,

Structure (SMILES),"activity change, negative = inhibition",Potency
CCCN1C(=O)CN(C2CCCCC2)C(=O)C1c1ccc(OC)c(OC)c1 (centres undefined),inactive: 10.2%,
O=C(NC1CC1)c1ccc(Cn2c(SCc3ccccc3F)nc3cccnc32)cc1,inactive: -11.7%,
COc1cccc([C@@H]2Nc3ccc(C(=O)O)cc3[C@@H]3C=CC[C@@H]32)c1OC,inactive: -2.99%,
Cc1ccc2c(=O)cc(C(=O)Nc3ccc(S(=O)(=O)Nc4onc(C)c4C)cc3)oc2c1,inactive: -2.56%,
Cc1cccc(-n2ncc(C(=O)N3CCN(C(=O)c4ccco4)CC3)c2C2CCN(C(=O)OC(C)(C)C)CC2)c1,inactive: 5.36%,
CC(NC(=O)C(=O)Nc1c2c(nn1-c1ccccc1)CSC2)c1ccccc1 (centres undefined),inactive: -5.98%,
Cc1ccc2c(c1)c(=O)c(C(=O)c1ccncc1)cn2CC(=O)Nc1ccc(C(C)C)cc1,inactive: 1.88%,
COc1cccc(NC(=O)Cn2nc3c4ccccc4n(Cc4cccc(F)c4)cc-3c2=O)c1,inactive: -5.06%,
Cc1nn(CCC(=O)NCc2ccc(N(C)C)cc2)c(=O)c2nn(-c3ccccc3)c(C)c12,inactive: 0.917%,
Cc1ccc(N2CC(NC(=O)c3ccc(Br)o3)CC2=O)cc1C (centres undefined),inactive: 0.166%,
CC(C)(C)c1ccc(C(=O)Nc2ccc(-c3nc4cc(Cl)ccc4o3)cc2)cc1,inactive: 5.69%,
CCOc1ccc(NCc2cccn2-c2nnc(N3CCC(C(=O)NCc4ccc(C)cc4)CC3)s2)cc1,inactive: 3.76%,
Cc1nnc(N2CCN(c3ccccc3F)CC2)c2c1nnn2Cc1ccccc1Cl,inactive: 3.03%,
COc1ccc2nc3oc(C(=O)N(C)c4ccc(Cl)cc4)cc3cc2c1,inactive: 1%,
CCc1nnc(NC(=O)CSc2nccn2Cc2ccc(F)cc2)s1,inactive: 0%,
COc1ccc(N2CCN(CC(O)COc3ccc(C(C)C)c(C)c3)CC2)cc1 (centres undefined),inactive: -22.9%,
COC(=O)c1sc2cccc(F)c2c1S(=O)(=O)N1CCN(c2cccc(C)c2)C(C)C1 (centres undefined),inactive: -6.23%,
Cc1nc2ccc(S(=O)(=O)N(CC(=O)Nc3ccc(F)cc3)Cc3ccccc3)cc2s1,inactive: 2.96%,
CC1CCc2c(sc(NC(=O)CCCOc3ccccc3)c2C(N)=O)C1 (centres undefined),inactive: -11.1%,
CC(C)(C)OC(=O)N1CCC(c2c(C(=O)N3CCN(C(=O)c4ccco4)CC3)cnn2-c2ccc(F)cc2F)CC1,inactive: 2.02%,
CCOc1ccc(-n2nc3ccc(NC(=O)Cc4ccccc4)cc3n2)cc1,inactive: 2.21%,
CCCOC(=O)c1c(NC(=O)c2cc3ccccc3c(=O)o2)sc2c1CCC(C)C2 (centres undefined),inactive: -2.5%,
